Here are results for one molecule from patent US20040053837A1 (LUDWIG INSTITUTE FOR CANCER RESEARCH, published 2004).

One test addresses T1, human PDGF beta-receptor (human, UniProt P09619 33-1106).
T1 construct: whole, on cells; also called PDGF receptor beta; PDGFR-beta
The experiment in a line: competition with 125I-PDGF-BB on PAE-1 cells expressing human PDGF beta-receptor. The method, then: Next, full length and truncated PDGF-C were tested for their capacity to bind to human PDGF receptors alpha and beta by analyzing their abilities to compete with PDGF-BB for binding to PDGF receptors. The binding experiments were performed on porcine aortic endothelial-1 (PAE-1) cells stably expressing the human PDGF receptors alpha and beta (Eriksson et al., EMBO J, 1992, 11, 543-550). Binding experiments were performed essentially as in Heldin et al. (EMBO J, 1988, 7:1387-1393). Different concentrations of human full-length and truncated PDGF-C, or human PDGF-BB were mixed with 5 ng/ml of ¹²⁵I-PDGF-BB in binding buffer (PBS containing 1 mg/ml of bovine serum albumin). Aliquots were incubated with the receptor expressing PAE-1 cells plated in 24-well culture dishes on ice for 90 minutes. After three washes with binding buffer, cell-bound ¹²⁵I -PDGF-BB was extracted by lysis of cells in 20 mM Tris-HCl, pH 7.5, 10% glycerol, 1% Triton X-100. The amount of cell bound radioactivity was determined in a gamma-counter. A standard curve for the binding of ¹²⁵I-labeled PDGF BB homodimers to PAE-1 cells expressing PDGF alpha-receptor is shown in FIG. 18. An increasing excess of the unlabeled protein added to the incubations competed efficiently with cell association of the radiolabeled tracer.

The target in test [1] is T2, human PDGF alpha-receptor (human, UniProt P16234 24-1089).
T2 construct: whole, on cells; also called PDGF receptor alpha; PDGFR-alpha
T2 sequence (P16234 24-1089): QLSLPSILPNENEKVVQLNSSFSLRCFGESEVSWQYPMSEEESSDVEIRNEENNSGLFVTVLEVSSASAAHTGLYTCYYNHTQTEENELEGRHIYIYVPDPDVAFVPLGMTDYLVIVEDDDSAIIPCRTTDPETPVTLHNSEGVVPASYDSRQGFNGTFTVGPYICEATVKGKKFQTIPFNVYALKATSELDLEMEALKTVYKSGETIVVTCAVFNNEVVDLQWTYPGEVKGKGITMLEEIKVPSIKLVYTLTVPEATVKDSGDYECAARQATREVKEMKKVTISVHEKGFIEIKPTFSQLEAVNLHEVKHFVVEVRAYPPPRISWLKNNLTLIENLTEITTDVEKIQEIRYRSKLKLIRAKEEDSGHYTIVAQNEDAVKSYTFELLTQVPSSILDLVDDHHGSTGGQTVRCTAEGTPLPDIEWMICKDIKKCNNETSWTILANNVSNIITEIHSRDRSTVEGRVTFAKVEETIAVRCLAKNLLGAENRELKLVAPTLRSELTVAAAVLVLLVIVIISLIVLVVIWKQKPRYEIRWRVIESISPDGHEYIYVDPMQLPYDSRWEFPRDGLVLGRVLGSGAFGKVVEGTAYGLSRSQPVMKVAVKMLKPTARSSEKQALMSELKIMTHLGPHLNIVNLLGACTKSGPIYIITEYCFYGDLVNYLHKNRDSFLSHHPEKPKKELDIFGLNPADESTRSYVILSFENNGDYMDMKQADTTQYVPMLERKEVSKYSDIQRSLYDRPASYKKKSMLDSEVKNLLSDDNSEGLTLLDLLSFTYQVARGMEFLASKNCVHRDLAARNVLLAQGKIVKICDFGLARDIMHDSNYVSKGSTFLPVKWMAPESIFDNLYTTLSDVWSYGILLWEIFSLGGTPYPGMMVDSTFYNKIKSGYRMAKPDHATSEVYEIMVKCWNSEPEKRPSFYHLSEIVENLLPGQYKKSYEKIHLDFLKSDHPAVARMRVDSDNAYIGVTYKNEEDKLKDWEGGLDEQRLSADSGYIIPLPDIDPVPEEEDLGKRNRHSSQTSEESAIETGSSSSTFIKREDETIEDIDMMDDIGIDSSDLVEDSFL
The experiment in a line: competition with 30 ng/ml 125I-labeled truncated PDGF-C on PAE-1 cells expressing PDGF alpha receptors. The method, then:
To assess the interactions between truncated PDGF-C and the PDGF alpha and beta receptors, truncated PDGF-C was tested for its capacity to bind to porcine aortic endothelial-1 (PAE-1) cells expressing PDGF alpha or beta receptors, respectively (Eriksson et al., EMBO J, 1992 11:543-550). The binding experiments were performed essentially as described in Heldin et al. (EMBO J, 1988 7:1387-1393). Five micrograms of truncated PDGF-C protein in ten microliters of sodium borate buffer was radiolabeled using the Bolton-Hunter reagent (Amersham) to a specific activity of 4×10⁵ cpm/ng. Different concentrations of radiolabeled truncated PDGF-C, with or without added unlabeled protein, in binding buffer (PBS containing 1 mg/ml of bovine serum albumin) was added to the receptor expressing PAE-1 cells plated in 24-well culture dishes on ice for 90 minutes. After three washes with binding buffer, cell-bound ¹²⁵I-labeled PDGF-C was extracted by lysis of cells in 20 mM Tris-HCl, pH 7.5, 10% glycerol, 1% Triton X-100. The amount of cell-bound radioactivity was determined in a gamma-counter. Non-specific binding was estimated by including a 100-fold molar excess of truncated PDGF-C in some experiments. […] The binding was specific as radiolabeled PDGF-C was quantitatively displaced by a 100-fold molar excess of unlabeled protein. […]

human PDGF beta-receptor, sequence (P09619 33-1106): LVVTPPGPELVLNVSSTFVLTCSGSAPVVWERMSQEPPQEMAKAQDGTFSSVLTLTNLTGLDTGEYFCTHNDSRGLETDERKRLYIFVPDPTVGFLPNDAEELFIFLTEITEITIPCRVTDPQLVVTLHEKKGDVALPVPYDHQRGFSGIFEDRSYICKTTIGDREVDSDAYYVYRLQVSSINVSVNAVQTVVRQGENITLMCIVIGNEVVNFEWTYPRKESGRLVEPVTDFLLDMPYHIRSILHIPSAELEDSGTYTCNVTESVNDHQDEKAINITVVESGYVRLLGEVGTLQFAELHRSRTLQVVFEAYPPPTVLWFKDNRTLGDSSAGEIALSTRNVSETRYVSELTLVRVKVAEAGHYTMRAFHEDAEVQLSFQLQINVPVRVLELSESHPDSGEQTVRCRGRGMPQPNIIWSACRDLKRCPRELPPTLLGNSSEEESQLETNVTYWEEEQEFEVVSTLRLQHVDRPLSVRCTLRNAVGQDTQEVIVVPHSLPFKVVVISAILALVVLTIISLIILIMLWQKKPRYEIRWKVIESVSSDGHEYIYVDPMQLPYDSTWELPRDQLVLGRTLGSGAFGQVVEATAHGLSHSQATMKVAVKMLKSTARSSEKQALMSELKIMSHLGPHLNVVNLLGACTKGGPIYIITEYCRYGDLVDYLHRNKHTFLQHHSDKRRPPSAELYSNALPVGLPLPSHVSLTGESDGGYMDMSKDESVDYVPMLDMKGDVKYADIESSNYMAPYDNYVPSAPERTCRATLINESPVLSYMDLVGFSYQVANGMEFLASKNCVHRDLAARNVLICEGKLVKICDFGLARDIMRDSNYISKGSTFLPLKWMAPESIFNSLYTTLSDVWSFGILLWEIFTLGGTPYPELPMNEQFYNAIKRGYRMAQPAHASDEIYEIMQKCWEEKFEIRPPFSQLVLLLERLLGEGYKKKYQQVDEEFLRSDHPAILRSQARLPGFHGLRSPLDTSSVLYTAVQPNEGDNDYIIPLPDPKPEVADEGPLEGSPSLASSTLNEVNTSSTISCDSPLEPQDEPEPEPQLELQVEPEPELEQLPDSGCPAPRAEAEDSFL

B1: full length human PDGF-CC homodimer (recombinant, baculovirus-infected Sf9 cells, C-terminal enterokinase site and 6xHis tag) (ligand, not shown: small tags and cut ends)
chain: not shown
notes: Disulfide-linked dimer (90 kDa non-reduced, 55 kDa reduced); The 'full length coding part' (970 bp) was cloned in frame into pAcGP67A; The very similar forward primer of the CUB construct is said to start at residue 23; also called flPDGF-CC; full length PDGF-C
As to B1, the binding result (with human PDGF beta-receptor; in test [1]) was “no binding” throughout.
